Measurements as given in a collection of fitness landscapes (doi:10.1016/j.celrep.2020.107928).
Whole data set: some 81,000 sequences, median “one-hybrid fitness for binding NBS DNA” near -0.1, cut for the highest 2% near 0.36. This is one part of the list.

B1: Caulobacter ParB omega fusion; a variant is named by its letters at X, in order, B8GW30 (parent)
chain: MESVVVGEPGMSEGRRGLGRGLSALLGEVDAAPAQAPGEQLGGSREAPIEILQRNPDQPRRTFREEDLEDLSNSIREKGVLQPILVRPSPDTAGEYQIVAGERAWRAAQRAGLKTVPIMVRELDDLAVLEIGIIENVQRADLNVLEEALSYKVLMEKFERTQENIAQTIGKSXSHVANXMRLLXLPDEVQSYLVSGELTAXHARAIAAAADPVALAKQIIEGGLSVRETEALARKAPNLSAGKSKGGRPPRVKDTDTQALESDLSSVLGLDVSIDHRGSTGTLTITYATLEQLDDLCNRLTRGI

Variants of: B1
Experiment: one-hybrid fitness for binding NBS DNA (the Noc-binding site; scaled: cognate 1, non-cognate 0); higher = stronger binding
Conditions: with NBS DNA site
How it was run: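 In E. coli USO, a HIS3 reporter with its site placed 19 bp from the promoter was used to select Caulobacter ParB variants randomised at four specificity codons. Growth lasted 48 hours at 37°C on histidine-free M9 containing 0.1 mM IPTG and 5 mM 3-AT. Fitness was taken as the log change in variant-to-wild-type read ratio from Illumina sequencing of pre- and post-selection plasmids, rescaled between the non-cognate and cognate sites.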

Variant | one-hybrid fitness for binding NBS DNA
QILD | ≤ 0.2
LQTF | ≤ 0.2
HHER | ≤ 0.2
AFNL | ≤ 0.2
RNQR | 0.271
DLMR | ≤ 0.2
DYTL | ≤ 0.2
RKRA | 0.45
LLKF | ≤ 0.2
LTYE | ≤ 0.2
SWPT | ≤ 0.2
HEWM | ≤ 0.2
RYRD | ≤ 0.2
RETN | ≤ 0.2
DNIR | ≤ 0.2
RLQE | ≤ 0.2
VRTF | ≤ 0.2
QHSL | ≤ 0.2
QSEN | ≤ 0.2
MEMV | ≤ 0.2
GGST | ≤ 0.2
RKVN | ≤ 0.2
SNLY | ≤ 0.2
LENC | ≤ 0.2
VEAG | ≤ 0.2
HGVS | ≤ 0.2

Variant | one-hybrid fitness for binding NBS DNA
QCTI | ≤ 0.2
NRGE | ≤ 0.2
VRLE | ≤ 0.2
ASIT | ≤ 0.2
GMMM | ≤ 0.2
QMGW | ≤ 0.2
TWLP | ≤ 0.2
CAEG | ≤ 0.2
LYVL | ≤ 0.2
VSVY | ≤ 0.2
ASGW | ≤ 0.2
ASHN | ≤ 0.2
RLST | 0.46
ETHY | ≤ 0.2
FGSI | ≤ 0.2
DSMV | ≤ 0.2
PHNY | ≤ 0.2
GDTG | ≤ 0.2
KRTR | 0.563
KMVA | ≤ 0.2
LIAC | ≤ 0.2
ALVD | ≤ 0.2
CPMR | ≤ 0.2
PKCF | ≤ 0.2
TMQC | ≤ 0.2
MKYR | 0.298

Variant | one-hybrid fitness for binding NBS DNA
QANG | ≤ 0.2
MVGD | ≤ 0.2
TSSV | ≤ 0.2
TKQP | ≤ 0.2
SNWR | ≤ 0.2
HPHP | ≤ 0.2
IKLV | ≤ 0.2
QLII | ≤ 0.2
WPTL | ≤ 0.2
GQNR | ≤ 0.2
QIPV | ≤ 0.2
EHNC | ≤ 0.2
QKSF | ≤ 0.2
FRNC | ≤ 0.2
FTPS | ≤ 0.2
SKVC | ≤ 0.2
YLSS | ≤ 0.2
WWLS | ≤ 0.2
DPNC | ≤ 0.2
VHQS | ≤ 0.2
RTHL | ≤ 0.2
LAYN | ≤ 0.2
KRHQ | ≤ 0.2
CFKR | ≤ 0.2
